# The supplement of paper PMC8728848
# This is one part of the list.
# B1: Gal 7 (Homo sapiens) (protein)
# chain: MSNVPHKSSLPEGIRPGTVLRIRGLVPPNASRFHVNLLCGEEGGSDAALHFNPRLDTSEVVFNSKEGGSWGREERGPGVPFGRGQPFEVLIIASDDGFKAVVGDAQYHHFRHRLPLARVRLVEVGGDVQLDSVRIF
# Tests used:
# Assay in all cases: glycan array binding signal (z-score within array); higher = stronger binding
# Conditions in all cases: glycan notation: IUPAC condensed, linker removed
# [1] = target: GlcNAc(b1-3)Gal(b1-4)GlcNAc(b1-6)[GlcNAc(b1-3)Gal(b1-3)]GalNAc
# Summary of the method: (§1)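 From the Consortium for Functional Glycomics database, 3228 arrays were curated, keeping only those whose protein sequence was available. Binding is given as a within-array Z-score averaged across arrays sharing a protein sequence and across linkers. Negative Z-scores can be read as non-binding.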
# [2] = target: GlcNAc(b1-3)Gal(b1-4)GlcNAc(b1-6)[GlcNAc(b1-3)]Gal(b1-4)GlcNAc
# Summary of the method: as §1
# [3] = target: GlcNAc(b1-3)GalNAc
# Summary of the method: as §1
# [4] = target: GlcNAc(b1-3)Man
# Summary of the method: as §1
# [5] = target: GlcNAc(b1-3)[GlcNAc(b1-4)][GlcNAc(b1-6)]GlcNAc
# Summary of the method: as §1
# [6] = target: GlcNAc(b1-3)[GlcNAc(b1-6)]Gal(b1-4)GlcNAc
# Summary of the method: as §1
# [7] = target: GlcNAc(b1-3)[GlcNAc(b1-6)]GalNAc
# Summary of the method: as §1
# [8] = target: GlcNAc(b1-3)[GlcNAc(b1-6)]GlcNAc
# Summary of the method: as §1
# [9] = target: GlcNAc(b1-4)Gal(b1-4)GlcNAc
# Summary of the method: as §1
# [10] = target: GlcNAc(b1-4)GlcNAc
# Summary of the method: as §1
# [11] = target: GlcNAc(b1-4)GlcNAc(b1-4)GlcNAc
# Summary of the method: as §1
# [12] = target: GlcNAc(b1-4)GlcNAc(b1-4)GlcNAc(b1-4)GlcNAc(b1-4)GlcNAc
# Summary of the method: as §1
# [13] = target: GlcNAc(b1-4)GlcNAc(b1-4)GlcNAc(b1-4)GlcNAc(b1-4)GlcNAc(b1-4)GlcNAc
# Summary of the method: as §1
# [14] = target: GlcNAc(b1-4)[GlcNAc(b1-6)]GalNAc
# Summary of the method: as §1
# [15] = target: GlcNAc(b1-6)Gal(b1-4)GlcNAc
# Summary of the method: as §1
# [16] = target: GlcNAc(b1-6)GalNAc
# Summary of the method: as §1
# [17] = target: GlcNAc3Prop(b1-4)GlcNAc
# Summary of the method: as §1
# [18] = target: GlcNAc6S(b1-3)Gal(b1-4)GlcNAc
# Summary of the method: as §1
# [19] = target: Kdn(a2-3)Gal(b1-3)GalNAc
# Summary of the method: as §1
# [20] = target: Kdn(a2-3)Gal(b1-3)GlcNAc
# Summary of the method: as §1
# [21] = target: Kdn(a2-3)Gal(b1-4)Glc
# Summary of the method: as §1
# [22] = target: Kdn(a2-3)Gal(b1-4)GlcNAc
# Summary of the method: as §1
# [23] = target: Kdn(a2-3)Gal(b1-4)[Fuc(a1-3)]GlcNAc
# Summary of the method: as §1
# [24] = target: Kdn(a2-6)Gal(b1-4)GlcNAc
# Summary of the method: as §1
# [25] = target: Man(a1-2)Man(a1-2)Man(a1-3)Man
# Summary of the method: as §1
# [26] = target: Man(a1-2)Man(a1-2)Man(a1-3)[Man(a1-2)Man(a1-3)[Man(a1-2)Man(a1-6)]Man(a1-6)]Man(b1-4)GlcNAc(b1-4)GlcNAc
# Summary of the method: as §1
# [27] = target: Man(a1-2)Man(a1-2)Man(a1-3)[Man(a1-2)Man(a1-6)[Man(a1-3)]Man(a1-6)]Man(b1-4)GlcNAc(b1-4)GlcNAc
# Summary of the method: as §1
# [28] = target: Man(a1-2)Man(a1-2)Man(a1-6)[Man(a1-3)]Man
# Summary of the method: as §1
# [29] = target: Man(a1-2)Man(a1-3)Man
# Summary of the method: as §1
# [30] = target: Man(a1-2)Man(a1-3)[Man(a1-2)Man(a1-6)]Man
# Summary of the method: as §1
# [31] = target: Man(a1-2)Man(a1-3)[Man(a1-2)Man(a1-6)]Man(a1-6)[Man(a1-2)Man(a1-2)Man(a1-3)]Man
# Summary of the method: as §1
# [32] = target: Man(a1-2)Man(a1-3)[Man(a1-2)Man(a1-6)]Man(a1-6)[Man(a1-2)Man(a1-2)Man(a1-3)]Man(b1-4)GlcNAc(b1-4)GlcNAc
# Summary of the method: as §1
# [33] = target: Man(a1-2)Man(a1-3)[Man(a1-3)[Man(a1-6)]Man(a1-6)]Man(b1-4)GlcNAc(b1-4)GlcNAc
# Summary of the method: as §1
# [34] = target: Man(a1-2)Man(a1-3)[Man(a1-6)]Man(a1-6)[Man(a1-2)Man(a1-3)]Man(b1-4)GlcNAc(b1-4)GlcNAc
# Summary of the method: as §1
# [35] = target: Man(a1-2)Man(a1-6)[Man(a1-3)]Man(a1-6)[Man(a1-2)Man(a1-2)Man(a1-3)]Man
# Summary of the method: as §1
# [36] = target: Man(a1-2)Man(a1-6)[Man(a1-3)]Man(a1-6)[Man(a1-2)Man(a1-2)Man(a1-3)]Man(b1-4)GlcNAc(b1-4)GlcNAc
# Summary of the method: as §1
# [37] = target: Man(a1-3)[Man(a1-6)]Man
# Summary of the method: as §1
# [38] = target: Man(a1-3)[Man(a1-6)]Man(a1-6)[Man(a1-2)Man(a1-3)]Man(b1-4)GlcNAc(b1-4)GlcNAc
# Summary of the method: as §1
# [39] = target: Man(a1-3)[Man(a1-6)]Man(a1-6)[Man(a1-3)]Man
# Summary of the method: as §1
# [40] = target: Man(a1-3)[Man(a1-6)]Man(a1-6)[Man(a1-3)]Man(b1-4)GlcNAc(b1-4)GlcNAc
# Summary of the method: as §1
# [41] = target: Man(a1-3)[Man(a1-6)]Man(b1-4)GlcNAc(b1-4)GlcNAc
# Summary of the method: as §1
# [42] = target: Man(a1-3)[Man(a1-6)]Man(b1-4)GlcNAc(b1-4)[Fuc(a1-6)]GlcNAc
# Summary of the method: as §1
# [43] = target: Man(a1-6)Man
# Summary of the method: as §1
# [44] = target: Man(b1-4)GlcNAc
# Summary of the method: as §1
# [45] = target: MurNAc(b1-4)GlcNAc
# Summary of the method: as §1
binder,measurement,setting,value
B1,glycan array binding signal (z-score),[1],-0.267
same,glycan array binding signal (z-score),[2],-0.293
same,glycan array binding signal (z-score),[3],-0.32
same,glycan array binding signal (z-score),[4],-0.235
same,glycan array binding signal (z-score),[5],-0.029
same,glycan array binding signal (z-score),[6],-0.333
same,glycan array binding signal (z-score),[7],-0.322
same,glycan array binding signal (z-score),[8],-0.33
same,glycan array binding signal (z-score),[9],-0.348
same,glycan array binding signal (z-score),[10],-0.278
same,glycan array binding signal (z-score),[11],-0.259
same,glycan array binding signal (z-score),[12],-0.31
same,glycan array binding signal (z-score),[13],-0.317
same,glycan array binding signal (z-score),[14],-0.355
same,glycan array binding signal (z-score),[15],-0.34
same,glycan array binding signal (z-score),[16],-0.231
same,glycan array binding signal (z-score),[17],-0.394
same,glycan array binding signal (z-score),[18],-0.092
same,glycan array binding signal (z-score),[19],0.117
same,glycan array binding signal (z-score),[20],0.491
same,glycan array binding signal (z-score),[21],-0.275
same,glycan array binding signal (z-score),[22],-0.241
same,glycan array binding signal (z-score),[23],0.11
same,glycan array binding signal (z-score),[24],-0.258
same,glycan array binding signal (z-score),[25],-0.351
same,glycan array binding signal (z-score),[26],-0.353
same,glycan array binding signal (z-score),[27],-0.333
same,glycan array binding signal (z-score),[28],-0.328
same,glycan array binding signal (z-score),[29],-0.3
same,glycan array binding signal (z-score),[30],-0.331
same,glycan array binding signal (z-score),[31],-0.34
same,glycan array binding signal (z-score),[32],-0.179
same,glycan array binding signal (z-score),[33],-0.386
same,glycan array binding signal (z-score),[34],-0.235
same,glycan array binding signal (z-score),[35],-0.335
same,glycan array binding signal (z-score),[36],-0.185
same,glycan array binding signal (z-score),[37],-0.319
same,glycan array binding signal (z-score),[38],-0.158
same,glycan array binding signal (z-score),[39],-0.088
same,glycan array binding signal (z-score),[40],-0.156
same,glycan array binding signal (z-score),[41],-0.303
same,glycan array binding signal (z-score),[42],0.04
same,glycan array binding signal (z-score),[43],-0.167
same,glycan array binding signal (z-score),[44],-0.302
same,glycan array binding signal (z-score),[45],-0.278
